# Source: the supplement of paper PMC8728848
# The list shows a part of the results.
# B1: ECA (Erythrina cristagalli), P83410 (protein)
# chain: VETISFSFSEFEPGNDNLTLQGAALITQSGVLQLTKINQNGMPAWDSTGRTLYTKPVHMWDSTTGTVASFETRFSFSIEQPYTRPLPADGLVFFMGPTKSKPAQGYGYLGVFNNSKQDNSYQTLAVEFDTFSNPWDPPQVPHIGIDVNSIRSIKTQPFQLDNGQVANVVIKYDAPSKILHVVLVYPSSGAIYTIAEIVDVKQVLPDWVDVGLSGATGAQRDAAETHDVYSWSFQASLPE
# Assays:
# Assay in all cases: glycan array binding signal (z-score within array); higher = stronger binding
# Conditions in all cases: glycan notation: IUPAC condensed, linker removed
# [1] = target: GalNAc3S(b1-4)[Fuc(a1-3)]GlcNAc
# Method in brief: (§1)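 The binding signal is a Z-score computed within each array. Data were drawn from 3228 arrays in the Consortium for Functional Glycomics database, restricted to those with a known protein sequence. Scores were averaged over arrays of the same protein sequence at different concentrations or buffers, and over linkers, and negative values can be taken as non-binding.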
# GalNAc4S6S(b1-4)GlcNAc = target: GalNAc4S6S(b1-4)GlcNAc
# Method in brief: as §1
# GalNAc6S(b1-4)GlcNAc = target: GalNAc6S(b1-4)GlcNAc
# Method in brief: as §1
# Glc(a1-4)Glc = target: Glc(a1-4)Glc
# Method in brief: as §1
# [2] = target: Glc(a1-4)Glc(a1-4)Glc(a1-4)Glc
# Method in brief: as §1
# Glc(a1-6)Glc(a1-6)Glc = target: Glc(a1-6)Glc(a1-6)Glc
# Method in brief: as §1
# [3] = target: Glc(a1-6)Glc(a1-6)Glc(a1-6)Glc
# Method in brief: as §1
# Glc(b1-4)Glc = target: Glc(b1-4)Glc
# Method in brief: as §1
# Glc(b1-6)Glc = target: Glc(b1-6)Glc
# Method in brief: as §1
# GlcA(b1-3)Gal = target: GlcA(b1-3)Gal
# Method in brief: as §1
# GlcA(b1-3)GlcNAc = target: GlcA(b1-3)GlcNAc
# Method in brief: as §1
# GlcA(b1-6)Gal = target: GlcA(b1-6)Gal
# Method in brief: as §1
# [4] = target: GlcA3S(b1-3)Gal(b1-4)GlcNAc(b1-2)Man
# Method in brief: as §1
# [5] = target: GlcA3S(b1-3)Gal(b1-4)GlcNAc(b1-3)Gal(b1-4)Glc
# Method in brief: as §1
# [6] = target: GlcNAc(a1-3)Gal(b1-4)GlcNAc
# Method in brief: as §1
# [7] = target: GlcNAc(a1-4)Gal(b1-3)GlcNAc
# Method in brief: as §1
# [8] = target: GlcNAc(a1-4)Gal(b1-4)GalNAc
# Method in brief: as §1
# [9] = target: GlcNAc(a1-4)Gal(b1-4)GlcNAc
# Method in brief: as §1
# [10] = target: GlcNAc(a1-4)Gal(b1-4)GlcNAc(b1-3)Gal(b1-4)Glc
# Method in brief: as §1
# [11] = target: GlcNAc(a1-4)Gal(b1-4)GlcNAc(b1-3)Gal(b1-4)GlcNAc
# Method in brief: as §1
# [12] = target: GlcNAc(a1-4)Gal(b1-4)GlcNAc(b1-3)Gal(b1-4)GlcNAc(b1-3)Gal(b1-4)GlcNAc
# Method in brief: as §1
# [13] = target: GlcNAc(a1-4)Gal(b1-4)GlcNAc(b1-3)Gal(b1-4)[Fuc(a1-3)]GlcNAc(b1-3)Gal(b1-4)[Fuc(a1-3)]GlcNAc
# Method in brief: as §1
# [14] = target: GlcNAc(a1-6)Gal(b1-4)GlcNAc
# Method in brief: as §1
# [15] = target: GlcNAc(b1-2)Gal(b1-3)GalNAc
# Method in brief: as §1
# [16] = target: GlcNAc(b1-2)Man(a1-3)[GlcNAc(b1-2)Man(a1-6)]Man(b1-4)GlcNAc(b1-4)GlcNAc
# Method in brief: as §1
# [17] = target: GlcNAc(b1-2)Man(a1-3)[GlcNAc(b1-2)Man(a1-6)]Man(b1-4)GlcNAc(b1-4)[Fuc(a1-6)]GlcNAc
# Method in brief: as §1
# [18] = target: GlcNAc(b1-2)Man(a1-3)[GlcNAc(b1-4)][GlcNAc(b1-2)Man(a1-6)]Man(b1-4)GlcNAc(b1-4)GlcNAc
# Method in brief: as §1
# [19] = target: GlcNAc(b1-2)Man(a1-3)[GlcNAc(b1-4)][GlcNAc(b1-2)Man(a1-6)]Man(b1-4)GlcNAc(b1-4)[Fuc(a1-6)]GlcNAc
# Method in brief: as §1
# [20] = target: GlcNAc(b1-2)[GlcNAc(b1-4)]Man(a1-3)[GlcNAc(b1-2)Man(a1-6)]Man(b1-4)GlcNAc(b1-4)GlcNAc
# Method in brief: as §1
# [21] = target: GlcNAc(b1-2)[GlcNAc(b1-4)]Man(a1-3)[GlcNAc(b1-4)][GlcNAc(b1-2)Man(a1-6)]Man(b1-4)GlcNAc(b1-4)GlcNAc
# Method in brief: as §1
# [22] = target: GlcNAc(b1-2)[GlcNAc(b1-4)]Man(a1-3)[GlcNAc(b1-4)][GlcNAc(b1-2)[GlcNAc(b1-6)]Man(a1-6)]Man(b1-4)GlcNAc(b1-4)GlcNAc
# Method in brief: as §1
# [23] = target: GlcNAc(b1-2)[GlcNAc(b1-4)]Man(a1-3)[GlcNAc(b1-4)][GlcNAc(b1-2)[GlcNAc(b1-6)]Man(a1-6)]Man(b1-4)GlcNAc(b1-4)[Fuc(a1-6)]GlcNAc
# Method in brief: as §1
# [24] = target: GlcNAc(b1-2)[GlcNAc(b1-6)]Man(a1-6)[GlcNAc(b1-2)Man(a1-3)]Man(b1-4)GlcNAc(b1-4)GlcNAc
# Method in brief: as §1
# [25] = target: GlcNAc(b1-2)[GlcNAc(b1-6)]Man(a1-6)[GlcNAc(b1-2)Man(a1-3)]Man(b1-4)GlcNAc(b1-4)[Fuc(a1-6)]GlcNAc
# Method in brief: as §1
# [26] = target: GlcNAc(b1-2)[GlcNAc(b1-6)]Man(a1-6)[GlcNAc(b1-4)][GlcNAc(b1-2)Man(a1-3)]Man(b1-4)GlcNAc(b1-4)GlcNAc
# Method in brief: as §1
# GlcNAc(b1-3)Fuc = target: GlcNAc(b1-3)Fuc
# Method in brief: as §1
# GlcNAc(b1-3)Gal = target: GlcNAc(b1-3)Gal
# Method in brief: as §1
# [27] = target: GlcNAc(b1-3)Gal(b1-3)GalNAc
# Method in brief: as §1
# GlcNAc(b1-3)Gal(b1-4)Glc = target: GlcNAc(b1-3)Gal(b1-4)Glc
# Method in brief: as §1
# [28] = target: GlcNAc(b1-3)Gal(b1-4)GlcNAc
# Method in brief: as §1
# [29] = target: GlcNAc(b1-3)Gal(b1-4)GlcNAc(b1-2)Man(a1-3)[GlcNAc(b1-3)Gal(b1-4)GlcNAc(b1-2)Man(a1-6)]Man(b1-4)GlcNAc(b1-4)GlcNAc
# Method in brief: as §1
# [30] = target: GlcNAc(b1-3)Gal(b1-4)GlcNAc(b1-2)Man(a1-3)[GlcNAc(b1-3)Gal(b1-4)GlcNAc(b1-2)Man(a1-6)]Man(b1-4)GlcNAc(b1-4)[Fuc(a1-6)]GlcNAc
# Method in brief: as §1
# [31] = target: GlcNAc(b1-3)Gal(b1-4)GlcNAc(b1-2)[GlcNAc(b1-3)Gal(b1-4)GlcNAc(b1-6)]Man(a1-6)[GlcNAc(b1-3)Gal(b1-4)GlcNAc(b1-2)Man(a1-3)]Man(b1-4)GlcNAc(b1-4)GlcNAc
# Method in brief: as §1
# [32] = target: GlcNAc(b1-3)Gal(b1-4)GlcNAc(b1-3)Gal(b1-4)GlcNAc
# Method in brief: as §1
# [33] = target: GlcNAc(b1-3)Gal(b1-4)GlcNAc(b1-3)Gal(b1-4)GlcNAc(b1-2)Man(a1-3)[GlcNAc(b1-3)Gal(b1-4)GlcNAc(b1-3)Gal(b1-4)GlcNAc(b1-2)Man(a1-6)]Man(b1-4)GlcNAc(b1-4)GlcNAc
# Method in brief: as §1
binder,measurement,setting,value
B1,glycan array binding signal (z-score),[1],-0.091
same,glycan array binding signal (z-score),GalNAc4S6S(b1-4)GlcNAc,-0.29
same,glycan array binding signal (z-score),GalNAc6S(b1-4)GlcNAc,-0.415
same,glycan array binding signal (z-score),Glc(a1-4)Glc,-0.148
same,glycan array binding signal (z-score),[2],0.632
same,glycan array binding signal (z-score),Glc(a1-6)Glc(a1-6)Glc,-0.211
same,glycan array binding signal (z-score),[3],0.182
same,glycan array binding signal (z-score),Glc(b1-4)Glc,-0.272
same,glycan array binding signal (z-score),Glc(b1-6)Glc,-0.224
same,glycan array binding signal (z-score),GlcA(b1-3)Gal,-0.186
same,glycan array binding signal (z-score),GlcA(b1-3)GlcNAc,-0.397
same,glycan array binding signal (z-score),GlcA(b1-6)Gal,-0.166
same,glycan array binding signal (z-score),[4],-0.497
same,glycan array binding signal (z-score),[5],-0.186
same,glycan array binding signal (z-score),[6],-0.314
same,glycan array binding signal (z-score),[7],-0.187
same,glycan array binding signal (z-score),[8],-0.282
same,glycan array binding signal (z-score),[9],-0.365
same,glycan array binding signal (z-score),[10],-0.16
same,glycan array binding signal (z-score),[11],-0.344
same,glycan array binding signal (z-score),[12],-0.476
same,glycan array binding signal (z-score),[13],0.036
same,glycan array binding signal (z-score),[14],-0.344
same,glycan array binding signal (z-score),[15],-0.226
same,glycan array binding signal (z-score),[16],-0.242
same,glycan array binding signal (z-score),[17],0.103
same,glycan array binding signal (z-score),[18],-0.636
same,glycan array binding signal (z-score),[19],-0.49
same,glycan array binding signal (z-score),[20],-0.027
same,glycan array binding signal (z-score),[21],-0.374
same,glycan array binding signal (z-score),[22],-0.605
same,glycan array binding signal (z-score),[23],-0.18
same,glycan array binding signal (z-score),[24],0.328
same,glycan array binding signal (z-score),[25],-0.207
same,glycan array binding signal (z-score),[26],-0.483
same,glycan array binding signal (z-score),GlcNAc(b1-3)Fuc,-0.493
same,glycan array binding signal (z-score),GlcNAc(b1-3)Gal,-0.199
same,glycan array binding signal (z-score),[27],-0.287
same,glycan array binding signal (z-score),GlcNAc(b1-3)Gal(b1-4)Glc,-0.286
same,glycan array binding signal (z-score),[28],-0.272
same,glycan array binding signal (z-score),[29],-0.329
same,glycan array binding signal (z-score),[30],-0.112
same,glycan array binding signal (z-score),[31],-0.269
same,glycan array binding signal (z-score),[32],-0.254
same,glycan array binding signal (z-score),[33],3.72
